According to the supplement of paper PMC3334620:
The full ranking holds about 33,000 sequences; the median of “E-score (-0.5 to 0.5)” is about -0.01, and the highest 2% start at about 0.26. The list shows a part of the results.

Target: Ste12 (UniProt P13574)
Experiment: PBM E-score (8-mer binding enrichment) (E-score (-0.5 to 0.5)); higher = stronger / more preferred TF binding; most listed sequences are background and not binding sites
Conditions: protein concentration: 200 nM; construct: GST-DNA-binding domain
Procedure, shortened: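 GST-tagged yeast TFs (full-length or DNA-binding domain) were made by PURExpress in vitro transcription/translation and applied at about 100-200 nM to universal all-10-mer Agilent arrays. The arrays were made double-stranded by primer extension, on fresh or once-stripped slides. Bound protein was detected with fluorescent anti-GST, and scans were normalised with masliner. Each ungapped eight-base word, pooled with its reverse complement, received an E-score (modified Wilcoxon-Mann-Whitney statistic) from the Universal PBM Analysis Suite.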

First: CGGGCGGC
Second: GCCAGAGC
The “PBM E-score” value of the first is higher: 0.0697 for the first, -0.17 for the second.

Going from AGCCCAAA to GGCGCAAA, the “PBM E-score” value rises from 0.134 to 0.218.

Going from CCCGCCAA to AACCCGAC, the “PBM E-score” value rises from 0.0301 to 0.177.

Going from CAATCTCC to CCTGGTGA, the “PBM E-score” value falls from -0.00169 to -0.00979.

Going from AAGTGACT to CCCTGTAG, the “PBM E-score” value falls from -0.0161 to -0.0895.

Going from AGACGTCC to ATCTGAAA, the “PBM E-score” value rises from -0.131 to 0.364.

First: CACCGGGG
Second: GATACTGC
The “PBM E-score” value of the first is lower: -0.0742 for the first, 0.00414 for the second.

Going from CTAATGGC to ATTCACTG, the “PBM E-score” value rises from -0.0156 to 0.0226.

Compared with AGCGTGCA, ATAGGCCA is lower in “PBM E-score” value: -0.0443 for the first, -0.117 for the second.

Going from CACTCGCA to AAAACTCT, the “PBM E-score” value falls from -0.0217 to -0.0402.

Compared with CGGTGGGA, CCCACAAC is lower in “PBM E-score” value: 0.033 for the first, -0.0103 for the second.

Going from CCGTTTTA to CCAATTGG, the “PBM E-score” value falls from 0.304 to -0.04.

First: ACATAGTG
Second: GACTAACC
The “PBM E-score” value of the first is higher: -0.0743 for the first, -0.0916 for the second.

Going from GCTGCTTA to CACTCAAC, the “PBM E-score” value rises from -0.116 to 0.104.

Compared with GGTGGATA, TAGATAAA is higher in “PBM E-score” value: 0.14 for the first, 0.148 for the second.

Going from ACGAAACG to AAACCACA, the “PBM E-score” value falls from 0.31 to 0.188.

First: AGAGCTTC
Second: AGGTCCTG
The “PBM E-score” value of the first is lower: -0.179 for the first, -0.121 for the second.

Going from CGCTCGAA to GACAAGTA, the “PBM E-score” value rises from -0.0852 to 0.0281.

Going from ACAAACCG to GCCTACGA, the “PBM E-score” value falls from 0.0902 to -0.059.

Compared with ACCACGCC, TCGACCGA is higher in “PBM E-score” value: -0.231 for the first, -0.0399 for the second.

Going from GTATCGTA to AACGCAAG, the “PBM E-score” value falls from 0.0508 to -0.106.

Going from CGAATAAG to CAACACGA, the “PBM E-score” value falls from 0.0673 to 0.0671.

Going from CAAGTCCA to CGGCCCGA, the “PBM E-score” value rises from -0.323 to 0.078.

First: CAACCCCC
Second: CACATTCA
The “PBM E-score” value of the first is lower: -0.0908 for the first, 0.125 for the second.

Compared with CCAAAAAC, AGATCTCG is lower in “PBM E-score” value: 0.216 for the first, -0.00741 for the second.

Going from AATCAGTC to CAGACCGC, the “PBM E-score” value rises from -0.0965 to 0.0129.

First: ACTATCAG
Second: ATGCTAGC
The “PBM E-score” value of the first is higher: 0.172 for the first, -0.0358 for the second.

Going from AGTACTGA to CAATTGGA, the “PBM E-score” value falls from -0.0437 to -0.0538.

First: ATGGTTTC
Second: ACCGGGCG
The “PBM E-score” value of the first is higher: 0.28 for the first, 0.00867 for the second.

Going from TAAGTCAA to GACAATCC, the “PBM E-score” value rises from -0.0556 to 0.0451.

Going from CTTATAGA to ACCATTGA, the “PBM E-score” value falls from 0.116 to -0.0371.

First: AAGCAAGA
Second: TTGGAAAA
The “PBM E-score” value of the first is lower: 0.165 for the first, 0.177 for the second.

Going from AGGCAATA to CTTGGGTC, the “PBM E-score” value falls from -0.0873 to -0.176.

First: ACGGGGAT
Second: AACGAATA
The “PBM E-score” value of the first is higher: 0.0745 for the first, 0.0425 for the second.

First: CACCCTCG
Second: GCAGTAGC
The “PBM E-score” value of the first is higher: -0.0491 for the first, -0.239 for the second.

Compared with CAAACTGG, GAGGTCCA is lower in “PBM E-score” value: 0.0658 for the first, -0.0294 for the second.

First: ACGCGAGC
Second: AGGCGCCT
The “PBM E-score” value of the first is lower: -0.151 for the first, 0.116 for the second.

Compared with ATGAGAAG, AGCTGTTG is higher in “PBM E-score” value: -0.0707 for the first, -0.0338 for the second.

Going from TCGAGTAA to CCACATGG, the “PBM E-score” value falls from 0.0655 to -0.218.

Going from CACGTGTA to GACATCTA, the “PBM E-score” value rises from -0.109 to 0.149.

Going from AGGAGAAG to CTTGTCAA, the “PBM E-score” value rises from -0.133 to -0.0591.

Compared with AATAATAT, AGCCATTC is lower in “PBM E-score” value: 0.185 for the first, -0.0872 for the second.

Compared with AGTACGAC, CAGCCATA is lower in “PBM E-score” value: -0.00866 for the first, -0.00901 for the second.

Going from CACAGAAC to GTGTCTCA, the “PBM E-score” value rises from -0.0884 to 0.338.

First: CTAGGGAC
Second: AAGTCTGA
The “PBM E-score” value of the first is higher: -0.0587 for the first, -0.0887 for the second.

Compared with CGAGGCCG, ACTAGACA is higher in “PBM E-score” value: -0.158 for the first, 0.00326 for the second.

First: CGTAGATC
Second: ATCTAATA
The “PBM E-score” value of the first is lower: 0.0235 for the first, 0.0563 for the second.

First: CCCCATCA
Second: CAGCTATC
The “PBM E-score” value of the first is higher: 0.106 for the first, -0.199 for the second.

First: CGTCCTAG
Second: AAAGACTA
The “PBM E-score” value of the first is lower: -0.0716 for the first, 0.0494 for the second.

Going from TATTGTGA to AGCTTCGC, the “PBM E-score” value falls from 0.113 to -0.238.

Compared with CAAGGGAG, AAGCCGGT is higher in “PBM E-score” value: -0.0603 for the first, 0.0896 for the second.

Going from GCGGGAGC to ATGTATGC, the “PBM E-score” value rises from -0.108 to -0.00107.

Going from CCGTACGC to ATCCCCAT, the “PBM E-score” value rises from -0.148 to 0.115.

Going from CTTTCCTC to GCGACCCA, the “PBM E-score” value rises from -0.157 to 0.0675.

Compared with AATCCTAT, CCAGGTTC is lower in “PBM E-score” value: 0.057 for the first, -0.111 for the second.

First: CCCAATCC
Second: CCATCAGC
The “PBM E-score” value of the first is higher: 0.00699 for the first, -0.133 for the second.

Compared with GGAGACAA, CAAAGGTG is higher in “PBM E-score” value: 0.0365 for the first, 0.141 for the second.

Compared with GGCCAGCA, CCCCCCGC is lower in “PBM E-score” value: -0.148 for the first, -0.154 for the second.

Compared with GGCAGGCC, GCTGTGCA is higher in “PBM E-score” value: -0.305 for the first, -0.194 for the second.

First: AGAATAGG
Second: AAAACGAC
The “PBM E-score” value of the first is higher: 0.0724 for the first, 0.0623 for the second.

Going from ATGCAGCG to ATGATCCG, the “PBM E-score” value rises from -0.042 to 0.0627.

First: AGTGGTAC
Second: CCTGCCAG
The “PBM E-score” value of the first is higher: -0.149 for the first, -0.19 for the second.

Compared with ACGTTCCG, GTTCCGGA is lower in “PBM E-score” value: -0.00647 for the first, -0.0664 for the second.

Compared with AGAGGATA, GAATTTCC is higher in “PBM E-score” value: -0.0799 for the first, 0.235 for the second.

Going from ATCAGGCC to GAGCGCAC, the “PBM E-score” value falls from -0.0451 to -0.253.

Compared with GTCATATA, CGTATACG is lower in “PBM E-score” value: 0.176 for the first, -0.0983 for the second.

First: AACTAGAC
Second: AGCTCGAG
The “PBM E-score” value of the first is higher: 0.16 for the first, -0.0355 for the second.

Going from AAGTCGGA to AATCAGAT, the “PBM E-score” value falls from -0.0725 to -0.172.

Compared with TGCCGCCA, GAAGGAAC is higher in “PBM E-score” value: -0.121 for the first, -0.0697 for the second.

Compared with GTGAACTA, CTCTCGAA is higher in “PBM E-score” value: -0.0279 for the first, 0.0296 for the second.

Compared with AAAAATAC, ACAAACTC is lower in “PBM E-score” value: 0.25 for the first, 0.136 for the second.

Compared with ACCTACGG, CGGAAGAG is higher in “PBM E-score” value: -0.38 for the first, -0.133 for the second.

Going from GGATATGA to AAGAGTTG, the “PBM E-score” value falls from 0.127 to -0.149.

Compared with AGTATGCA, GCGGACAA is higher in “PBM E-score” value: -0.191 for the first, 0.106 for the second.

Compared with CTCTACCA, AGTAGTGA is lower in “PBM E-score” value: -0.0377 for the first, -0.0994 for the second.

First: AGAGGGAT
Second: AGGGAGGG
The “PBM E-score” value of the first is lower: -0.0268 for the first, 0.305 for the second.

Compared with GGCTATCA, CACTCGAA is lower in “PBM E-score” value: -0.0607 for the first, -0.0764 for the second.

Compared with GTTCCAAC, ACTCGCTG is lower in “PBM E-score” value: 0.202 for the first, -0.0227 for the second.

First: ACCTCAGG
Second: ACCAATCG
The “PBM E-score” value of the first is lower: -0.154 for the first, 0.12 for the second.

Going from AGAATGAC to CACCCGGC, the “PBM E-score” value falls from -0.00728 to -0.299.

First: GTCCGGAC
Second: CTCGCCAG
The “PBM E-score” value of the first is higher: 0.0923 for the first, -0.15 for the second.

Going from AAGTGAAT to CAGTCTTC, the “PBM E-score” value falls from 0.0898 to -0.0828.

First: TAGTTACA
Second: CAGAGGCG
The “PBM E-score” value of the first is higher: 0.0123 for the first, -0.109 for the second.

Compared with ATAAAGGA, GTAGCTGA is lower in “PBM E-score” value: -0.0629 for the first, -0.127 for the second.

Compared with CGAAGGTA, GCACAGAC is lower in “PBM E-score” value: 0.00911 for the first, 0.00035 for the second.

First: ACATTTGG
Second: CCCCGTCG
The “PBM E-score” value of the first is higher: 0.115 for the first, -0.0224 for the second.
